Assay results: the GPR68 mutational scans of Howard et al. (2025)

B1: GPR68, Q15743 (parent)
chain: MGNITADNSSMSCTIDHTIHQTLAPVVYVTVLVVGFPANCLSLYFGYLQIKARNELGVYLCNLTVADLFYICSLPFWLQYVLQHDNWSHGDLSCQVCGILLYENIYISVGFLCCISVDRYLAVAHPFRFHQFRTLKAAVGVSVVIWAKELLTSIYFLMHEEVIEDENQHRVCFEHYPIQAWQRAINYYRFLVGFLFPICLLLASYQGILRAVRRSHGTQKSRKDQIQRLVLSTVVIFLACFLPYHVLLLVRSVWEASCDFAKGVFNAYHFSLLLTSFNCVADPVLYCFVSETTHRDLARLRGACLAFLTCSRTGRAREAYPLGAPEASGKSGAQGEEPELLTKLHPAFQTPNSPGSGGFPTGRLA

How the values were obtained:
[1] = variants of: B1; experiment: cAMP reporter score (Enrich2 score, wild type = 0); higher = more signal; HEK293T, FACS bins
[2] = variants of: B1; experiment: surface expression score (Enrich2 score, wild type = 0); higher = more signal; HEK293T, FACS bins

Variant | cAMP reporter score ([1]; pH 5.5) | cAMP reporter score ([1]; pH 6) | cAMP reporter score ([1]; pH 6, modulator: ogerin) | cAMP reporter score ([1]; pH 6.5, modulator: ogerin) | surface expression score [2]
F348_T350del | 0.338 | 0.671 | 0.177 | 0.265 | 0.789
A347_F348insGS | 0.965 |  | 0.935 | 0.933 | 1.81
F348_Q349insGS | 0.987 | -0.302 | 0.843 | 0.667 | 0.698
Q349_T350insGSG | 0.083 | -0.068 | 0.677 | 0.378 | 0.727
A347del | 0.035 | 1.18 | -0.601 | 0.041 | -0.077
Q349del | 0.532 | -0.455 | 0.513 | 0.463 | 0.77
T350D | 0.472 | -0.502 | 0.902 | 1.07 | 0.698
T350E | -0.133 | 0.384 | 0.312 | 0.735 | -0.192
T350C | 0.01 |  | -0.271 | 1.01 | 0.237
T350A | 0.292 | -0.67 | 0.683 | 0.285 | 0.094
T350H | 0.67 | -0.132 | 0.853 | 0.437 | 0.195
T350G | 1.06 | 0.113 | 1.14 | 1.05 | 0.377
T350F | 0.64 | -0.895 | -0.087 | -0.585 | -0.087
F348_Q349del | 0.556 | 0.083 | 1.26 | 1.37 | 1.9
Q349L | 0.853 | 0.785 | 0.597 | -0.394 | -0.055
Q349Y | 0.058 |  | 0.04 | 0.109 | 0.655
Q349E | -0.307 |  | 0.032 |  | -0.181
Q349V | 0.696 | 1.21 | 1.97 | 1.17 | 1.82
Q349K | 1.16 | 0.596 | 1.05 | 0.898 | 0.679
Q349A | 1.08 | 0.148 | 1.32 | 0.645 | 1.3
Q349D | 1.12 | 0.006 | 1.1 | 0.518 | 1

Variant | cAMP reporter score ([1]; pH 5.5) | cAMP reporter score ([1]; pH 6) | cAMP reporter score ([1]; pH 6, modulator: ogerin) | cAMP reporter score ([1]; pH 6.5, modulator: ogerin) | surface expression score [2]
Q349P | -0.285 | -0.119 | 0.582 | -0.031 | 0.476
Q349M | 1.65 |  | 1.92 |  | 2.48
Q349T | 0.679 | -0.449 | 0.667 | -0.2 | 0.119
Q349W | -0.15 | -0.415 | 0.005 | -0.923 | -0.554
Q349G | 1.49 |  | 1.3 | 1.33 | 1.53
Q349H | 1.06 | 0.517 | 0.456 |  | 0.732
Q349R | -0.873 | -0.429 | -0.139 | 0.542 | -0.515
Q349C | 1 | -0.443 | 1.13 | 1.29 | 
Q349I | 0.554 | 0.401 | 0.527 | -0.23 | 0.424
Q349F | 0.462 | -0.397 | 0.404 | -0.7 | -0.322
Q349N | 0.471 | 0.81 | 0.01 | -0.096 | 0.102
Q349S | 1.26 | 0.923 | 1.26 | 1.23 | 1.1
F348R | 0.231 | 0.209 | 0.341 | 0.748 | 0.421
F348T | 0.917 | 0.077 | 0.405 | 0.417 | 1.3
F348H | 0.974 | 0.998 | 0.94 | 0.546 | 0.578
F348S | 0.137 | 0.539 | 0.854 | 0.272 | 0.502
F348C | 0.709 | 1.94 | 1.1 | -0.063 | 1.4
F348V | 1.73 | 2.07 | 1.83 | 1.99 | 2.34
F348I | 1.36 | 2.28 | 1.09 | 1.63 | 1.72
F348W | 0.866 | 0.257 | 0.654 | 0.812 | 0.575
F348N | 1.37 | 1.27 | 1.86 | 2.2 | 1.89

Variant | cAMP reporter score ([1]; pH 5.5) | cAMP reporter score ([1]; pH 6) | cAMP reporter score ([1]; pH 6, modulator: ogerin) | cAMP reporter score ([1]; pH 6.5, modulator: ogerin) | surface expression score [2]
F348M | -1.59 | 1.83 | -0.63 |  | 0.347
F348A | 0.497 | 0.78 | 1 | 1.54 | 1.13
F348Y | -0.173 | -0.402 | -0.043 | -0.593 | -0.158
F348G | -0.699 | -0.488 | 0.503 | 1.16 | -0.5
F348D | -0.265 | -0.477 | -0.817 | 0.045 | -0.876
F348K | -0.978 | -0.07 | 0.148 | 0.552 | 0.972
F348L | 0.654 | -0.177 | 0.412 | 0.046 | 0.955
F348E | 0.197 | 0.44 | 0.237 | 0.472 | 0.658
F348P | 0.207 | 0.504 | 0.751 | 0.915 | 0.875
A347_F348insG | 0.419 | 1.57 | 1.34 | 1.75 | 0.561
Q349_T350insG | 0.829 | -0.315 | 0.801 | 0.975 | 0.758
A347R | 0.619 | 1.89 | 0.353 | 1.04 | 0.741
A347P | -0.102 | 0.225 | 0.052 | -0.263 | 0.864
A347V | 0.45 | 0.272 | 0.291 | 0.643 | 0.439
A347M | 2.68 |  |  | -0.75 | -0.387
A347Q | -0.16 | 0.401 | -0.243 | -0.732 | -0.485
A347Y | 0.056 | 0.448 | -0.344 | 0.016 | -0.753
A347S | 0.654 | 0.518 | 1.04 | 0.597 | 0.312
A347W | 0.871 | 0.189 | 0.841 | 0.433 | 0.132
A347N | -1.16 | -0.056 | 0.387 | -0.431 | 
F348del | 0.156 | -0.045 | -0.245 | -0.115 | -0.255

Scores with a large standard error are left out. The source holds two more conditions with little spread; they are left out. In variant names, del marks residues removed and ins residues inserted between the two positions. For some of these results: The concentration of ogerin is not given here.
